The target in experiment [1] is T1, Slf1p-TAP (S. cerevisiae) (UniProt Q12034).
T1 sequence: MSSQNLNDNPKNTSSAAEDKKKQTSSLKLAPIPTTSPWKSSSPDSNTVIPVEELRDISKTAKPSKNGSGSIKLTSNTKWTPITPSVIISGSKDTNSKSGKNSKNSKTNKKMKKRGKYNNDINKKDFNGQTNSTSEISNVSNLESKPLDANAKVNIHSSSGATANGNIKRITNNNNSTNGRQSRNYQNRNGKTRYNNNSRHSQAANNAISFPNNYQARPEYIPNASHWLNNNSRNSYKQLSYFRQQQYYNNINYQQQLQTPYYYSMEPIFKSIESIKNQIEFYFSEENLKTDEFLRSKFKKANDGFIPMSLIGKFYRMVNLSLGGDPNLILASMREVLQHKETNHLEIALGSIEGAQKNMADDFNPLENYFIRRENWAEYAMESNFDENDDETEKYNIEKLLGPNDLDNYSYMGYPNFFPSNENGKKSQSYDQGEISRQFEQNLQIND
Description: co-IP; as the TAP immunoprecipitation, but RNAsin omitted and 200 units of RNAse I added during the 20 minute immunoprecipitation; unstressed cells and cells treated with 0.4 mM hydrogen peroxide for 15 min.

The chains behind the UniProt entries cited, without tags or fusion partners.
UniProt P04147: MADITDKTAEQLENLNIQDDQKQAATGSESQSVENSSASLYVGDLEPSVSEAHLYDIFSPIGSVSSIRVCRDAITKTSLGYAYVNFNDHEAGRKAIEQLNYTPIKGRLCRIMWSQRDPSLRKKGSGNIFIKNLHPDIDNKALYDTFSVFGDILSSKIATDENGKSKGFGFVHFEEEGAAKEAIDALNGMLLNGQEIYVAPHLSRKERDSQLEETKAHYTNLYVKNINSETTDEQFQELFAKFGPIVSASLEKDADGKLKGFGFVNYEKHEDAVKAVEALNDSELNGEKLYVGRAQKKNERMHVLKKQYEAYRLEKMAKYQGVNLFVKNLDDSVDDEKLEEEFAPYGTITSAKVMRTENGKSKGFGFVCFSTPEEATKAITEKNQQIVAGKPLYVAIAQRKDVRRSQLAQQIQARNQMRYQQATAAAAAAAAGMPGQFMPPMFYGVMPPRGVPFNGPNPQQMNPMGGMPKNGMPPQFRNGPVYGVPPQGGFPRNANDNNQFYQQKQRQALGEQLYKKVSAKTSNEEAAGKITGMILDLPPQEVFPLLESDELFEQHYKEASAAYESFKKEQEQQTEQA

Experiment [2] deals with T2, Sro9p-TAP (S. cerevisiae) (UniProt P25567).
T2 sequence: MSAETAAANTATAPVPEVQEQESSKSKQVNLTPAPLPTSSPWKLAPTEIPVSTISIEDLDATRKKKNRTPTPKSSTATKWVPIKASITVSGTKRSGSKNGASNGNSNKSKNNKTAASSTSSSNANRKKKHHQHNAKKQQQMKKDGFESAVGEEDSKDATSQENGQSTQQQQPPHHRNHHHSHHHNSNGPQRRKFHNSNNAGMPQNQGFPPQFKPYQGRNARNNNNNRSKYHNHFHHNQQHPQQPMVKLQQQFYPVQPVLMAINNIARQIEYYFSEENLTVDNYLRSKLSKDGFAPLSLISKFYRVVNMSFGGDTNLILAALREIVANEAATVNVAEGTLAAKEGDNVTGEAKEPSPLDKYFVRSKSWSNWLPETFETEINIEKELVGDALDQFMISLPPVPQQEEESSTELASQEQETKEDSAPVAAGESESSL
Described as above.

In experiment [3] the target is T1, Slf1p-TAP (S. cerevisiae). Nature of the experiment: co-IP; TAP-tagged bait captured from cleared yeast lysate on IgG paramagnetic beads, 20 min at 4°C, L buffer (20 mM Tris-HCl pH 8, 140 mM NaCl, 1 mM MgCl2, 0.5% NP40) with RNAsin, five washes, Western blot; unstressed cells and cells treated with 0.4 mM hydrogen peroxide for 15 min. (In general: In western blotting, separated proteins are transferred to a membrane and probed.)

Experiment [4] addresses T2, Sro9p-TAP (S. cerevisiae). Described as above.

These are yes or no findings as the source states them, for the method shown. In cells and extracts the contact can be indirect. Some results given as binding are weak or reduced against the parent protein; the word gives no strength.

With Pab1p (from UniProt P04147 1-577), the binding entry in experiment [1], in experiment [2], in experiment [3] and in experiment [4] was “binds” in each case.

B1: Caf20p (protein, UniProt P12962 1-161)
chain: MIKYTIDELFQLKPSLTLEVNFDAVEFRAIIEKVKQLQHLKEEEFNSHHVGHFGRRRSSHHHGRPKIKHNKPKVTTDSDGWCTFEAKKKGSGEDDEEETETTPTSTVPVATIAQETLKVKPNNKNISSNRPADTRDIVADKPILGFNAFAALESEDEDDEA
Turning to B1, the binding entry in experiment [3] is “no binding”.

B2: Rps3p (protein, UniProt P05750 1-240)
chain: MVALISKKRKLVADGVFYAELNEFFTRELAEEGYSGVEVRVTPTKTEVIIRATRTQDVLGENGRRINELTLLVQKRFKYAPGTIVLYAERVQDRGLSAVAQAESMKFKLLNGLAIRRAAYGVVRYVMESGAKGCEVVVSGKLRAARAKAMKFADGFLIHSGQPVNDFIDTATRHVLMRQGVLGIKVKIMRDPAKSRTGPKALPDAVTIIEPKEEEPILAPSVKDYRPAEETEAQAEPVEA
Take B2: the binding result in experiment [1], in experiment [2], in experiment [3] and in experiment [4] was “binds” in each case.

The values are drawn from PMC4287443.
